# Test results: the supplement of paper PMC8728848
# The list shows a part of the results.
# B1: FedF (Escherichia coli), Q47212 (protein)
# chain: MRLKYILIIPLLLISLSVFASTLQVDKSVSYDWINSSASSAQVTGTLLGTGKTNTTQMPALYTWQHQIYNVNFIPSSSGTLTCQAGTILVWKNGRETQYALECRVSIHHSSGSINESQWGQQSQVGFGTACGNKKCRFTGFEISLRIPPNAQTYPLSSGDLKGSFSLTNKEVNWSASIYVPAIAKSYRLDTSITLPDTVNLKQNQATPVYYTFSAPSVSNTITGIPNQNDMPSSNVKLTIGPIQSKTTALYVQPDATGSWYDLSKSITMTVVKSSMLNFKGINAKPGNVTLSVPIVFEIQ
# Tests used:
# Assay in all cases: glycan array binding signal (z-score within array); higher = stronger binding
# Conditions in all cases: glycan notation: IUPAC condensed, linker removed
# Fuc(a1-2)Gal = target: Fuc(a1-2)Gal
# Summary of the method: (§1)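 Glycan array data were curated from 3228 arrays in the Consortium for Functional Glycomics database and kept only where the protein sequence was available. Glycan names were converted to IUPAC-condensed notation, and columns mapping to the same glycan were averaged. The binding signal is a within-array Z-score, averaged across arrays of the same protein sequence at different concentrations or buffers and across linkers. Negative Z-scores can be read as non-binding.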
# Fuc(a1-2)Gal(b1-3)GalNAc = target: Fuc(a1-2)Gal(b1-3)GalNAc
# Summary of the method: as §1
# [1] = target: Fuc(a1-2)Gal(b1-3)GalNAc(a1-3)[Fuc(a1-2)]Gal(b1-4)Glc
# Summary of the method: as §1
# [2] = target: Fuc(a1-2)Gal(b1-3)GalNAc(a1-3)[Fuc(a1-2)]Gal(b1-4)GlcNAc
# Summary of the method: as §1
# [3] = target: Fuc(a1-2)Gal(b1-3)GalNAc(b1-3)Gal
# Summary of the method: as §1
# [4] = target: Fuc(a1-2)Gal(b1-3)GalNAc(b1-3)Gal(a1-4)Gal(b1-4)Glc
# Summary of the method: as §1
# [5] = target: Fuc(a1-2)Gal(b1-3)GalNAc(b1-4)[Neu5Ac(a2-3)]Gal(b1-4)Glc
# Summary of the method: as §1
# Fuc(a1-2)Gal(b1-3)GlcNAc = target: Fuc(a1-2)Gal(b1-3)GlcNAc
# Summary of the method: as §1
# [6] = target: Fuc(a1-2)Gal(b1-3)GlcNAc(b1-2)Man(a1-3)[Fuc(a1-2)Gal(b1-3)GlcNAc(b1-2)Man(a1-6)]Man(b1-4)GlcNAc(b1-4)GlcNAc
# Summary of the method: as §1
# [7] = target: Fuc(a1-2)Gal(b1-3)GlcNAc(b1-2)Man(a1-3)[Fuc(a1-2)Gal(b1-3)GlcNAc(b1-2)Man(a1-6)]Man(b1-4)GlcNAc(b1-4)[Fuc(a1-6)]GlcNAc
# Summary of the method: as §1
# [8] = target: Fuc(a1-2)Gal(b1-3)GlcNAc(b1-3)Gal(b1-4)Glc
# Summary of the method: as §1
# [9] = target: Fuc(a1-2)Gal(b1-3)GlcNAc(b1-3)GalNAc
# Summary of the method: as §1
# [10] = target: Fuc(a1-2)Gal(b1-3)GlcNAc(b1-3)[Fuc(a1-3)[Gal(b1-4)]GlcNAc(b1-6)]Gal(b1-4)Glc
# Summary of the method: as §1
# [11] = target: Fuc(a1-2)Gal(b1-3)GlcNAc(b1-3)[Gal(b1-4)GlcNAc(b1-6)]Gal(b1-4)Glc
# Summary of the method: as §1
# [12] = target: Fuc(a1-2)Gal(b1-3)GlcNAc(b1-3)[Neu5Ac(a2-6)Gal(b1-4)GlcNAc(b1-6)]Gal(b1-4)Glc
# Summary of the method: as §1
# [13] = target: Fuc(a1-2)Gal(b1-3)[Fuc(a1-4)]GlcNAc
# Summary of the method: as §1
# [14] = target: Fuc(a1-2)Gal(b1-3)[Fuc(a1-4)]GlcNAc(b1-2)Man(a1-3)[Fuc(a1-2)Gal(b1-3)[Fuc(a1-4)]GlcNAc(b1-2)Man(a1-6)]Man(b1-4)GlcNAc(b1-4)GlcNAc
# Summary of the method: as §1
# [15] = target: Fuc(a1-2)Gal(b1-3)[Fuc(a1-4)]GlcNAc(b1-3)[Fuc(a1-3)[Gal(b1-4)]GlcNAc(b1-6)]Gal(b1-4)Glc
# Summary of the method: as §1
# [16] = target: Fuc(a1-2)Gal(b1-3)[Fuc(a1-4)]GlcNAc(b1-3)[Gal(b1-4)GlcNAc(b1-6)]Gal(b1-4)Glc
# Summary of the method: as §1
# Fuc(a1-2)Gal(b1-4)Glc = target: Fuc(a1-2)Gal(b1-4)Glc
# Summary of the method: as §1
# Fuc(a1-2)Gal(b1-4)Glc6S = target: Fuc(a1-2)Gal(b1-4)Glc6S
# Summary of the method: as §1
# Fuc(a1-2)Gal(b1-4)GlcNAc = target: Fuc(a1-2)Gal(b1-4)GlcNAc
# Summary of the method: as §1
# [17] = target: Fuc(a1-2)Gal(b1-4)GlcNAc(b1-2)Man(a1-3)[Fuc(a1-2)Gal(b1-4)GlcNAc(b1-2)Man(a1-6)]Man(b1-4)GlcNAc(b1-4)GlcNAc
# Summary of the method: as §1
# [18] = target: Fuc(a1-2)Gal(b1-4)GlcNAc(b1-2)Man(a1-3)[Fuc(a1-2)Gal(b1-4)GlcNAc(b1-2)Man(a1-6)]Man(b1-4)GlcNAc(b1-4)[Fuc(a1-6)]GlcNAc
# Summary of the method: as §1
# [19] = target: Fuc(a1-2)Gal(b1-4)GlcNAc(b1-2)[Fuc(a1-2)Gal(b1-4)GlcNAc(b1-4)]Man(a1-3)[Fuc(a1-2)Gal(b1-4)GlcNAc(b1-2)Man(a1-6)]Man(b1-4)GlcNAc(b1-4)GlcNAc
# Summary of the method: as §1
# [20] = target: Fuc(a1-2)Gal(b1-4)GlcNAc(b1-3)Gal(b1-4)GlcNAc
# Summary of the method: as §1
# [21] = target: Fuc(a1-2)Gal(b1-4)GlcNAc(b1-3)Gal(b1-4)GlcNAc(b1-3)Gal(b1-4)GlcNAc
# Summary of the method: as §1
# [22] = target: Fuc(a1-2)Gal(b1-4)GlcNAc(b1-3)GalNAc
# Summary of the method: as §1
# [23] = target: Fuc(a1-2)Gal(b1-4)GlcNAc(b1-3)[Fuc(a1-2)Gal(b1-4)GlcNAc(b1-6)]GalNAc
# Summary of the method: as §1
# [24] = target: Fuc(a1-2)Gal(b1-4)GlcNAc6S
# Summary of the method: as §1
binder,measurement,setting,value
B1,glycan array binding signal (z-score),Fuc(a1-2)Gal,-0.243
same,glycan array binding signal (z-score),Fuc(a1-2)Gal(b1-3)GalNAc,-0.259
same,glycan array binding signal (z-score),[1],-0.135
same,glycan array binding signal (z-score),[2],-0.195
same,glycan array binding signal (z-score),[3],0.555
same,glycan array binding signal (z-score),[4],-0.223
same,glycan array binding signal (z-score),[5],-0.129
same,glycan array binding signal (z-score),Fuc(a1-2)Gal(b1-3)GlcNAc,-0.376
same,glycan array binding signal (z-score),[6],-0.179
same,glycan array binding signal (z-score),[7],-0.174
same,glycan array binding signal (z-score),[8],-0.21
same,glycan array binding signal (z-score),[9],0.118
same,glycan array binding signal (z-score),[10],-0.186
same,glycan array binding signal (z-score),[11],-0.157
same,glycan array binding signal (z-score),[12],-0.171
same,glycan array binding signal (z-score),[13],-0.383
same,glycan array binding signal (z-score),[14],0.147
same,glycan array binding signal (z-score),[15],-0.148
same,glycan array binding signal (z-score),[16],-0.152
same,glycan array binding signal (z-score),Fuc(a1-2)Gal(b1-4)Glc,-0.326
same,glycan array binding signal (z-score),Fuc(a1-2)Gal(b1-4)Glc6S,-0.123
same,glycan array binding signal (z-score),Fuc(a1-2)Gal(b1-4)GlcNAc,-0.316
same,glycan array binding signal (z-score),[17],-0.189
same,glycan array binding signal (z-score),[18],-0.126
same,glycan array binding signal (z-score),[19],0.106
same,glycan array binding signal (z-score),[20],-0.446
same,glycan array binding signal (z-score),[21],0.368
same,glycan array binding signal (z-score),[22],-0.081
same,glycan array binding signal (z-score),[23],-0.078
same,glycan array binding signal (z-score),[24],-0.202
